Measurements published in PubChem BioAssay AID1159614 (National Center for Advancing Translational Sciences (NCATS), 2016).
Out of some 45,000 compounds screened, about 65 (0.1%) were called active. Calls come from the whole dose curve; as a rule, active = well fitted activation curve with a large enough effect; inconclusive = small, poorly fitted or top-dose-only effect; inactive = no such curve, though single readings can be large or run the other way. The list shows a part of the results.

Target: Galactocerebrosidase (Homo sapiens) (UniProt P54803)
Assay: A Novel Cell-Based Assay to Identify Small Molecules for B -Galactocerebrosidase; note: 0% is about no effect; nearly all actives have a fitted effect of over 65% in size
Conditions: 145M-Twi-hGALC-G270D cells, HMU-beta-Gal fluorescence, 48 h; series mostly up to 57.5 µM; activation: at the top concentration
Outline: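 qHTS, 1536-well; 145M-Twi-hGALC-G270D cells (WT line also made) in DMEM/F12 + 10% FBS; compound incubation on live cells; HMU-β-gal 0.1 mM final, pH 5.2, NaTC; carbonate stop; fluorescence increase = enhanced residual activity.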

Sequence of UniProt P54803 (P54803 whole entry, looked up): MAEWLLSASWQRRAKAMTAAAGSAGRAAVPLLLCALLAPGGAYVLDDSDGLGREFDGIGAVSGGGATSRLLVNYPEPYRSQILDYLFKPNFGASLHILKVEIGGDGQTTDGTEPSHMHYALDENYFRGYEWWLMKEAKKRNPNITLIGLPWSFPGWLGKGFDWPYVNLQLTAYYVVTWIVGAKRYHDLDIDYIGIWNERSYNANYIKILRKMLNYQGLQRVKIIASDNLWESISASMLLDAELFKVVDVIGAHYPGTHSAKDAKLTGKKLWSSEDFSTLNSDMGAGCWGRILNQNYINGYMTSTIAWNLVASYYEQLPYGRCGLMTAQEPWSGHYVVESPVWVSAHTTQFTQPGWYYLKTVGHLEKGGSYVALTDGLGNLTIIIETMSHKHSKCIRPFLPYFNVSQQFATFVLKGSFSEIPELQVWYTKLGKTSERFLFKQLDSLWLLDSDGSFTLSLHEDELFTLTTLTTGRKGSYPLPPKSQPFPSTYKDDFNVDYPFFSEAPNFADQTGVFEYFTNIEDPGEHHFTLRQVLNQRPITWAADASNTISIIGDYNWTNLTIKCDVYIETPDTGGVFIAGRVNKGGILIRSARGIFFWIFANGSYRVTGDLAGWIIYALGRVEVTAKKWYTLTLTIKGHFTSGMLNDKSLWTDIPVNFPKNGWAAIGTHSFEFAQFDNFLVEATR

activation, inactive:
CCc1ccc2occ(CC(=O)NCc3ccccc3)c2c1 -12.8%
COc1ccc(-c2nc3sc(CCNC(=O)c4ccc(C(C)(C)C)cc4)c(C)n3n2)cc1 -11%
CCOc1ccccc1C(=O)Nc1cc2c(cc1C)n(C)c(=O)c(=O)n2C 4.28%
Nc1c(NC/C=C\COc2cc(CN3CCCCC3)ccn2)c(=O)c1=O -13.5% [at 23.8 µM]
CCN1C(=O)c2ccccc2S(=O)(=O)c2ccc(C(=O)NCc3ccc(F)cc3)cc21 5.72%
Cc1ccc(CNC(=O)CN2C(=O)COc3ccc(S(=O)(=O)N4CCC(C)CC4)cc32)cc1 -29%
Cc1ccc(/C=C/C(=O)Nc2ccc(Cl)cc2Cl)cc1 -7.61%
COc1ccc(NC(=O)c2ccc3[nH]c(C)cc(=O)c3c2)cc1 -15.8%
CCCCCCn1c(/C=C/c2ccccc2)nc2ccccc21 -12.2%
Cc1ccc(-n2cc(C(=O)OCc3ccc(Cl)cc3)c3ccccc3c2=O)cc1 -8.31%
Cc1ccc(NC(=O)Cc2coc3c(C)c(C)ccc23)c(C)c1 -16.2%
CC(=O)N[C@@H](CS)C(=O)O -14.6%
CSc1cccc(NC(=O)c2ccc3c(c2)CCCN3S(C)(=O)=O)c1 -14.1%
Cc1ccc(C)c(NC(=O)CN(Cc2ccccc2)S(=O)(=O)c2ccc3nc(C)sc3c2)c1 -11%
c1ccc(N2CCN(c3ncnc4c3nc3n4CCCCC3)CC2)cc1 -11.4%
COC(=O)C1CCN(c2csc3ccc(C)cc3c2=O)CC1 -6.48%
CCN(CCCNC(=O)c1ccc(Sc2ccc(Cl)cc2)c(NC(C)=O)c1)c1cccc(C)c1 -2.49%
CCc1nn(CCCC(=O)NCc2ccc(OC)c(OC)c2)c(=O)c2cc3occc3n12 -7.14%
NCc1ccccc1Sc1ccccc1CO -17.1%
CCN(CC)c1ccc(-c2nc(-c3ccccn3)no2)cc1[N+](=O)[O-] -14.9%
CN1c2ccccc2-c2nc(SCC(=O)Nc3ccccc3)ncc2S1(=O)=O -25.4%
O=C(CSc1oc(-c2ccco2)nc1S(=O)(=O)c1ccc(Br)cc1)c1ccc(Cl)cc1 -11.6%
COc1cc(C2Oc3nc(SC)nnc3-c3ccccc3N2C(C)=O)cc(Cl)c1OC (stereo not drawn) 3.52%
Cc1cc(Br)ccc1NC(=O)c1sc2ncn(Cc3ccccc3Cl)c(=O)c2c1C -12.4%
Cc1ccc(-n2ncc3c(NCc4ccccc4)ncnc32)cc1C -13.5%
COc1cc(OC)c(NC(=O)CSc2nc3ccncc3[nH]2)cc1Cl -18.9%
CC(NC(=O)C1CCN(C(=O)N2CCOc3ccccc32)CC1)c1ccccc1 (stereo not drawn) -18.4%
CCCNC(=O)Cn1nc(C)c2c(C)n(-c3ccccc3)nc2c1=O -3.81%
CC1=C(C(=O)Nc2cccnc2)C(c2ccc(F)cc2)n2nc(SCc3ccccc3)nc2N1 (stereo not drawn) -13.6%
Cc1cccc(NC(=O)CCS(=O)(=O)c2cc(Br)cc3c2N(C(=O)C2CC2)CC3)c1C -7.75%
CC1CCN(S(=O)(=O)c2cccc(C(=O)N(C)C3(C)CCS(=O)(=O)C3)c2)CC1 (stereo not drawn) -19.1%
CCCCNC(=O)CSc1nc2ccccc2nc1Cc1ccccc1 -10.1%
COc1cccc(N2CCN(C(=O)Cn3ncc4c3-c3ccccc3OC4)CC2)c1 5.33%
Cc1ccc(C(=O)c2cn(CC(=O)Nc3ccc4c(c3)OCCO4)c3nc(C)ccc3c2=O)cc1 -8.73%
CCOc1ccc(Nc2c(S(=O)(=O)c3ccccc3)cnc3ccc(CC)cc23)cc1 -7.12%
CC(C)CCNC(=O)c1ccc(NC(=O)N2CCCCc3ccccc32)cc1 -11.7%
Cc1ccc(N2CC(NC(=O)C3CCCC3)CC2=O)cc1 (stereo not drawn) -17.5%
CN1Cc2cc(C(=O)N3CCC(C4CCNCC4)CC3)ccc2N[C@@H](CC(=O)O)C1=O -14%
CSc1oc(-c2ccc(F)cc2)nc1S(=O)(=O)c1ccc(Br)cc1 -2.31%
CC(C)CC(NC(=O)C1CCC(C)CC1)C(=O)OCC(=O)c1ccc(Cl)cc1 (stereo not drawn) -6.83%
O=C(CSc1nc2ccccc2n1Cc1ccccc1)NCc1ccccc1 -10.2%
Cc1ccc(-c2cc(-c3coc4ccccc4c3=O)c3c(n2)-c2cc(Cl)ccc2OC3)cc1 -16.2%
CC(=O)Nc1ccc(-c2nnc3n(CC(C)C)c(=O)c4ccccc4n23)cc1 -17.6%
Cc1cc(C)cc(NC(=O)NCC2CCN(Cc3cc(C)ccc3C)CC2)c1 -8.22%
COc1ccccc1NC(=O)Cn1c(SCC(=O)NCc2ccccc2)nc2ccccc21 -3.67%
COc1ccc(-c2noc(CSc3nnc(-c4ccncc4)n3-c3cccc(C)c3)n2)cc1OC -11.7%
Cc1ccc(CCNC(=O)CCCn2nc(C)c3c(C)n(-c4ccc(C)cc4)nc3c2=O)cc1 -11.8%
COc1ccc(NC(=O)CCCN2C(=O)C(c3ccccc3)Oc3cccnc32)cc1OC (stereo not drawn) -16.1%
COc1cc(-c2nnc(SCC(=O)N(C)C3CCCCC3)o2)cc(OC)c1OC -28.6%
COc1ccc(CCC(=O)NCCc2csc(-c3cccc(F)c3)n2)cc1 -4.71%
CCc1ccc(OCC2c3cc(OC)c(OC)cc3CCN2C(=O)Cc2ccc(OC)c(OC)c2)cc1 (stereo not drawn) -22%
COc1cc2c(cc1NC(=O)C(C)Oc1ccc(Cl)cc1Cl)oc1ccccc12 (stereo not drawn) -9.14%
COc1ccc(NC(=O)c2oc3ccc4c(c3c2C)C(=O)CC(C)(C)O4)cc1OC -13%
CCOc1ccccc1NS(=O)(=O)c1c(C(=O)OC)sc2cccc(F)c12 8.02%
COc1ccc(OC)c(CCNC(=O)c2sc3nc4n(c(=O)c3c2C)CCCC4)c1 -10.2%
COc1ccc(N(C(=O)c2ccccc2C)S(=O)(=O)c2ccc3c(c2)n(C)c(=O)n3C)cc1 -11%
CCNc1c(NC(=O)c2ccccc2OCC)c(=O)oc2ccccc12 -8.74%
CSCCC(NC(=O)C1CCCCC1)C(=O)Nc1ccc(F)c(Cl)c1 (stereo not drawn) -8.64%
Cc1cc(N2CCN(C)CC2)nc2ccc(NC(=O)Nc3ccccc3Cl)cc12 1.56%
Cc1ccc(OCC(=O)OCc2cc(=O)n3nc(C4CCCCC4)sc3n2)cc1 -12%
CCN(c1ncnc2c1c(-c1ccccc1)cn2-c1ccccc1)C1CCCCC1 -12.4%
COc1ccc(-n2c(=O)c3c(C)c(C)sc3n(Cc3ccc(F)cc3)c2=O)c(OC)c1 -21.3%
Cc1ccc(S(=O)(=O)N2CCCc3cc(NC(=O)c4ccc(C(F)(F)F)cc4)ccc32)cc1 -13.6%
Cc1ccc(N2C(=O)[C@@H]3CSC(c4ccc(C(F)(F)F)cc4)N3C2=O)cc1 (stereo partly drawn) -7.3%
CCOC(=O)C1=C(CNCc2ccccc2)NC(=O)NC1c1ccc(C)cc1 (stereo not drawn) -8.23%
COc1cccc(-c2nc(SC(C(C)=O)C(=O)N(C)C)c3c(=O)n(C)c(=O)n(C)c3n2)c1 (stereo not drawn) -17.7%
CN(C)CCn1nnnc1SCC1=C(C(=O)O)N2C(=O)[C@@H](NC(=O)Cc3csc(N)n3)[C@H]2SC1 -12.5%
Cc1cc(=O)n(C(C)C(=O)NCc2ccccc2Cl)c2c1c(C)nn2-c1ccccc1 (stereo not drawn) -10.9%
O=C(Nc1ccc(F)cc1)c1cccc(N2CCCS2(=O)=O)c1 -34.2%
Cc1ccc(NC(=O)c2ccc3c(=O)n4nc(Nc5ccccc5C)sc4nc3c2)cc1C -24.9%
CCc1ccc(C2N3CC4(C)CN2CC(c2ccccc2)(C3)C4=O)cc1 (stereo not drawn) -10.4%
Cc1c2cnn(CC(=O)N3CCCCC3)c(=O)c2c(C)n1Cc1ccc(Cl)cc1 -6.34%
CCn1cc(C(=O)NCc2ccccc2)c(=O)c2cc(S(=O)(=O)N3CCOCC3)ccc21 4.23%
COC(=O)C1=C(C)NC(=O)NC1c1cn(-c2ccccc2)nc1-c1ccc(OC)c(Cl)c1 (stereo not drawn) -4.15%
Cc1ccc(C(C)C)c(OCC(=O)Nc2c(C(=O)c3ccc(F)cc3)oc3ccccc23)c1 -1.4%
Cc1cc(O)c(C(c2ccccc2Cl)N2CCCCC2)c(=O)n1Cc1ccco1 (stereo not drawn) -20.7%
COc1cc(OC)c(C2C=C(c3ccc(C)cc3)Nc3c(C(=O)Nc4ccccc4)cnn32)cc1OC (stereo not drawn) -11.5%
Cc1c(Cl)cccc1NC(=O)C(=O)NCCc1csc(-c2cccc(F)c2)n1 -2.61%
CC(C)CCCC(C)N (stereo not drawn) 9.55%
Cc1ccc(/C=C/c2onc(C)c2S(=O)(=O)N2CCC(C(=O)NCc3ccc(Cl)cc3)CC2)cc1 -7.43%
CC(NC(=O)c1ccc(N2Cc3ccccc3Oc3ncccc32)s1)c1ccccc1 (stereo not drawn) -15.5%
CCOC(=O)C(C)NC(=O)c1cc2c(=O)[nH]c3ccc(C)cc3c2s1 (stereo not drawn) -7.76%
O=C(NCCc1ccc(Cl)cc1)c1ccc2c(c1)N(Cc1ccc(F)cc1Cl)C(=O)CS2 8.69%
CC(NC(=O)Cc1ccc(NC(=O)N2CCCCc3ccccc32)cc1)c1ccccc1 (stereo not drawn) 0.552%
COc1ccc(-c2nc(CSc3nc4ncccc4[nH]3)c(C)o2)cc1OC 6.89%
COc1ccc(NC(=O)c2ccc(-c3cccc(Cl)c3C)o2)cc1 -17.5%
COc1ccc(-c2[nH]c(-c3ccccc3)nc2SCC(=O)Nc2ccc3c(c2)OCO3)cc1 -17.8%
CCn1c(CN2CCCCC2)nc2cc(NC(=O)COc3ccc([N+](=O)[O-])cc3)ccc21 -14.2%
Cc1oc(-c2ccc(Cl)cc2)nc1CN1CCCC(C(=O)NCc2ccc(Cl)cc2)C1 (stereo not drawn) -36.9%
CCCOc1ccccc1C(=O)Nc1nc2c(s1)CCCC2 -11%
CN(Cc1ccccc1)C(=O)c1ccc2c(c1)N(Cc1ccc(Cl)cc1)C(=O)c1ccccc1S2=O (stereo not drawn) -13.4%
CCOC(=O)c1cnc2c(C)cc(C)cc2c1Nc1ccc(N2CCOCC2)cc1 -21.5%
COc1ccc(C(=O)Nc2ccc3c(c2)N(C)C(=O)c2ccccc2S3)cc1OC -21.2%
C1=CC2C3C=CC(C3)C2C1 (stereo not drawn) -13.7% [at 114 µM]
CCOC(=O)N1CCN(C(=O)c2cnn(-c3cccc(C)c3)c2-n2cccc2)CC1 -13%
Cc1nnc(N2CCC(C(=O)NCc3cccc(Cl)c3)CC2)c2nn(-c3ccccc3)c(C)c12 -12%
CCc1ccccc1N1CC(c2nc3ccccc3n2CCC2CCCCC2)CC1=O (stereo not drawn) -14.5%
COc1cccc(NS(=O)(=O)c2ccc3[nH]cc(C(=O)N(C)Cc4ccco4)c(=O)c3c2)c1 2.82%
